# Test results taken from the supplement of paper PMC8728848.
# This is one part of the list.
# How the values were obtained:
# Test in all cases: glycan array binding signal (z-score within array); higher = stronger binding
# Conditions in all cases: glycan notation: IUPAC condensed, linker removed
# [1] = molecular target: Neu5Ac(a2-3)Gal(b1-3)[Fuc(a1-4)]GlcNAc(b1-3)Gal(b1-4)[Fuc(a1-3)]GlcNAc
# How it was run: (§1)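 Negative Z-scores can be read as non-binding. The Z-score is calculated within each array and then averaged across arrays of one protein sequence at different concentrations or buffers and across linkers. Arrays, 3228 in all, were curated from the Consortium for Functional Glycomics database and kept only where the protein sequence was available.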
# [2] = molecular target: Neu5Ac(a2-3)Gal(b1-3)[Neu5Ac(a2-3)Gal(b1-4)]GlcNAc
# How it was run: as §1
# [3] = molecular target: Neu5Ac(a2-3)Gal(b1-3)[Neu5Ac(a2-6)]GalNAc
# How it was run: as §1
# Neu5Ac(a2-3)Gal(b1-4)Glc = molecular target: Neu5Ac(a2-3)Gal(b1-4)Glc
# How it was run: as §1
# [4] = molecular target: Neu5Ac(a2-3)Gal(b1-4)GlcNAc
# How it was run: as §1
# [5] = molecular target: Neu5Ac(a2-3)Gal(b1-4)GlcNAc(b1-2)Man(a1-3)[GlcNAc(b1-2)Man(b1-4)GlcNAc(b1-2)Man(a1-6)]Man(b1-4)GlcNAc(b1-4)GlcNAc
# How it was run: as §1
# [6] = molecular target: Neu5Ac(a2-3)Gal(b1-4)GlcNAc(b1-2)Man(a1-3)[Neu5Ac(a2-6)Gal(b1-4)GlcNAc(b1-2)Man(a1-6)]Man(b1-4)GlcNAc(b1-4)GlcNAc
# How it was run: as §1
# [7] = molecular target: Neu5Ac(a2-3)Gal(b1-4)GlcNAc(b1-3)Gal(b1-3)GlcNAc
# How it was run: as §1
# [8] = molecular target: Neu5Ac(a2-3)Gal(b1-4)GlcNAc(b1-3)Gal(b1-4)GlcNAc
# How it was run: as §1
# [9] = molecular target: Neu5Ac(a2-3)Gal(b1-4)GlcNAc(b1-3)Gal(b1-4)GlcNAc(b1-3)Gal(b1-4)GlcNAc
# How it was run: as §1
# [10] = molecular target: Neu5Ac(a2-3)Gal(b1-4)GlcNAc(b1-3)Gal(b1-4)[Fuc(a1-3)]GlcNAc
# How it was run: as §1
# [11] = molecular target: Neu5Ac(a2-3)Gal(b1-4)GlcNAc(b1-6)[Gal(b1-3)]GalNAc
# How it was run: as §1
# [12] = molecular target: Neu5Ac(a2-3)Gal(b1-4)GlcNAc(b1-6)[Neu5Ac(a2-3)Gal(b1-3)]GalNAc
# How it was run: as §1
# [13] = molecular target: Neu5Ac(a2-3)Gal(b1-4)GlcNAc6S
# How it was run: as §1
# [14] = molecular target: Neu5Ac(a2-3)Gal(b1-4)[Fuc(a1-3)]GlcNAc
# How it was run: as §1
# [15] = molecular target: Neu5Ac(a2-3)Gal(b1-4)[Fuc(a1-3)]GlcNAc(b1-3)Gal
# How it was run: as §1
# [16] = molecular target: Neu5Ac(a2-3)Gal(b1-4)[Fuc(a1-3)]GlcNAc(b1-3)Gal(b1-4)GlcNAc
# How it was run: as §1
# [17] = molecular target: Neu5Ac(a2-3)Gal(b1-4)[Fuc(a1-3)]GlcNAc(b1-3)Gal(b1-4)[Fuc(a1-3)]GlcNAc(b1-3)Gal(b1-4)[Fuc(a1-3)]GlcNAc
# How it was run: as §1
# [18] = molecular target: Neu5Ac(a2-3)Gal(b1-4)[Fuc(a1-3)]GlcNAc(b1-6)[Gal(b1-3)]GalNAc
# How it was run: as §1
# [19] = molecular target: Neu5Ac(a2-3)Gal(b1-4)[Fuc(a1-3)]GlcNAc6S
# How it was run: as §1
# [20] = molecular target: Neu5Ac(a2-3)Gal6S(b1-4)GlcNAc
# How it was run: as §1
# [21] = molecular target: Neu5Ac(a2-3)Gal6S(b1-4)[Fuc(a1-3)]GlcNAc
# How it was run: as §1
# Neu5Ac(a2-3)GalNAc = molecular target: Neu5Ac(a2-3)GalNAc
# How it was run: as §1
# [22] = molecular target: Neu5Ac(a2-3)GalNAc(b1-4)GlcNAc
# How it was run: as §1
# [23] = molecular target: Neu5Ac(a2-3)[GalNAc(b1-4)]Gal(b1-4)Glc
# How it was run: as §1
# [24] = molecular target: Neu5Ac(a2-3)[GalNAc(b1-4)]Gal(b1-4)GlcNAc
# How it was run: as §1
# [25] = molecular target: Neu5Ac(a2-3)[Neu5Ac(a2-6)]GalNAc
# How it was run: as §1
# Neu5Ac(a2-6)Gal = molecular target: Neu5Ac(a2-6)Gal
# How it was run: as §1
# Neu5Ac(a2-6)Gal(b1-4)Glc = molecular target: Neu5Ac(a2-6)Gal(b1-4)Glc
# How it was run: as §1
# [26] = molecular target: Neu5Ac(a2-6)Gal(b1-4)GlcNAc
# How it was run: as §1
# [27] = molecular target: Neu5Ac(a2-6)Gal(b1-4)GlcNAc(b1-2)Man(a1-3)[Gal(b1-4)GlcNAc(b1-2)Man(a1-6)]Man(b1-4)GlcNAc(b1-4)GlcNAc
# How it was run: as §1
# [28] = molecular target: Neu5Ac(a2-6)Gal(b1-4)GlcNAc(b1-2)Man(a1-3)[GlcNAc(b1-2)Man(a1-6)]Man(b1-4)GlcNAc(b1-4)GlcNAc
# How it was run: as §1
# [29] = molecular target: Neu5Ac(a2-6)Gal(b1-4)GlcNAc(b1-2)Man(a1-3)[GlcNAc(b1-2)Man(b1-4)GlcNAc(b1-2)Man(a1-6)]Man(b1-4)GlcNAc(b1-4)GlcNAc
# How it was run: as §1
# [30] = molecular target: Neu5Ac(a2-6)Gal(b1-4)GlcNAc(b1-2)Man(a1-3)[Neu5Ac(a2-6)Gal(b1-4)GlcNAc(b1-2)Man(a1-6)]Man(b1-4)GlcNAc(b1-4)GlcNAc
# How it was run: as §1
# [31] = molecular target: Neu5Ac(a2-6)Gal(b1-4)GlcNAc(b1-2)Man(a1-6)[Gal(b1-4)GlcNAc(b1-2)Man(a1-3)]Man(b1-4)GlcNAc(b1-4)GlcNAc
# How it was run: as §1
# [32] = molecular target: Neu5Ac(a2-6)Gal(b1-4)GlcNAc(b1-2)Man(a1-6)[GlcNAc(b1-2)Man(a1-3)]Man(b1-4)GlcNAc(b1-4)GlcNAc
# How it was run: as §1
# [33] = molecular target: Neu5Ac(a2-6)Gal(b1-4)GlcNAc(b1-3)Gal(b1-4)GlcNAc
# How it was run: as §1
# [34] = molecular target: Neu5Ac(a2-6)Gal(b1-4)GlcNAc(b1-3)Gal(b1-4)[Fuc(a1-3)]GlcNAc(b1-3)Gal(b1-4)[Fuc(a1-3)]GlcNAc
# How it was run: as §1
# [35] = molecular target: Neu5Ac(a2-6)Gal(b1-4)GlcNAc6S
# How it was run: as §1
# Neu5Ac(a2-6)GalNAc = molecular target: Neu5Ac(a2-6)GalNAc
# How it was run: as §1
# [36] = molecular target: Neu5Ac(a2-6)GalNAc(b1-4)GlcNAc
# How it was run: as §1
# Neu5Ac(a2-8)Neu5Ac = molecular target: Neu5Ac(a2-8)Neu5Ac
# How it was run: as §1
# [37] = molecular target: Neu5Ac(a2-8)Neu5Ac(a2-3)Gal(b1-4)Glc
# How it was run: as §1
# [38] = molecular target: Neu5Ac(a2-8)Neu5Ac(a2-3)[GalNAc(b1-4)]Gal(b1-4)Glc
# How it was run: as §1
# [39] = molecular target: Neu5Ac(a2-8)Neu5Ac(a2-8)Neu5Ac
# How it was run: as §1
# [40] = molecular target: Neu5Ac(a2-8)Neu5Ac(a2-8)Neu5Ac(a2-3)Gal(b1-4)Glc
# How it was run: as §1
# [41] = molecular target: Neu5Ac(a2-8)Neu5Ac(a2-8)Neu5Ac(a2-3)[GalNAc(b1-4)]Gal(b1-4)Glc
# How it was run: as §1
# [42] = molecular target: Neu5Ac(a2-8)Neu5Ac(a2-8)Neu5Ac(a2-8)Neu5Ac(a2-3)[GalNAc(b1-4)]Gal(b1-4)Glc
# How it was run: as §1
# [43] = molecular target: Neu5Ac(b2-6)Gal(b1-4)GlcNAc
# How it was run: as §1
# Neu5Ac(b2-6)GalNAc = molecular target: Neu5Ac(b2-6)GalNAc
# How it was run: as §1
# [44] = molecular target: Neu5Ac9Ac(a2-6)Gal(b1-4)GlcNAc
# How it was run: as §1
# [45] = molecular target: Neu5Gc(a2-3)Gal(b1-3)GlcNAc
# How it was run: as §1
# [46] = molecular target: Neu5Gc(a2-3)Gal(b1-3)[Fuc(a1-4)]GlcNAc
# How it was run: as §1
# Neu5Gc(a2-3)Gal(b1-4)Glc = molecular target: Neu5Gc(a2-3)Gal(b1-4)Glc
# How it was run: as §1
# [47] = molecular target: Neu5Gc(a2-3)Gal(b1-4)GlcNAc
# How it was run: as §1
# [48] = molecular target: Neu5Gc(a2-3)Gal(b1-4)[Fuc(a1-3)]GlcNAc
# How it was run: as §1
# [49] = molecular target: Neu5Gc(a2-6)Gal(b1-4)GlcNAc
# How it was run: as §1
# Neu5Gc(a2-6)GalNAc = molecular target: Neu5Gc(a2-6)GalNAc
# How it was run: as §1
# [50] = molecular target: Neu5Gc(b2-6)Gal(b1-4)GlcNAc
# How it was run: as §1
binder,measurement,setting,value
"LSECtin (Homo sapiens), Q6UXB4 (protein) MEQESALRELRERVTQGLAEAGRGREDVRTELFRALEAVRLQNNSCEPCPTSWLSFEGSCYFFSVPKTTWAAAQDHCADASAHLVIVGGLDEQGFLTRNTRGRGYWLGLRAVRHLGKVQGYQWVDGVSLSFSHWNQGEPNDAWGRENCVMMLHTGLWNDAPCDSEKDGWICEKKAQLLTPPSALEPRPLQHVVSWGLLTSLAPGADCQRVFSSSSTAAESQKHLAQHSPVQPSAWALGPPCRPHPNSTHADPT",glycan array binding signal (z-score),[1],-0.154
same,glycan array binding signal (z-score),[2],-0.301
same,glycan array binding signal (z-score),[3],-0.221
same,glycan array binding signal (z-score),Neu5Ac(a2-3)Gal(b1-4)Glc,-0.295
same,glycan array binding signal (z-score),[4],-0.303
same,glycan array binding signal (z-score),[5],-0.296
same,glycan array binding signal (z-score),[6],-0.301
same,glycan array binding signal (z-score),[7],-0.309
same,glycan array binding signal (z-score),[8],-0.304
same,glycan array binding signal (z-score),[9],-0.304
same,glycan array binding signal (z-score),[10],-0.294
same,glycan array binding signal (z-score),[11],-0.269
same,glycan array binding signal (z-score),[12],-0.297
same,glycan array binding signal (z-score),[13],-0.3
same,glycan array binding signal (z-score),[14],-0.255
same,glycan array binding signal (z-score),[15],-0.278
same,glycan array binding signal (z-score),[16],-0.255
same,glycan array binding signal (z-score),[17],-0.262
same,glycan array binding signal (z-score),[18],-0.274
same,glycan array binding signal (z-score),[19],0.026
same,glycan array binding signal (z-score),[20],-0.243
same,glycan array binding signal (z-score),[21],-0.24
same,glycan array binding signal (z-score),Neu5Ac(a2-3)GalNAc,-0.303
same,glycan array binding signal (z-score),[22],-0.303
same,glycan array binding signal (z-score),[23],-0.287
same,glycan array binding signal (z-score),[24],-0.298
same,glycan array binding signal (z-score),[25],-0.289
same,glycan array binding signal (z-score),Neu5Ac(a2-6)Gal,-0.301
same,glycan array binding signal (z-score),Neu5Ac(a2-6)Gal(b1-4)Glc,-0.298
same,glycan array binding signal (z-score),[26],-0.294
same,glycan array binding signal (z-score),[27],0.242
same,glycan array binding signal (z-score),[28],5.63
same,glycan array binding signal (z-score),[29],-0.286
same,glycan array binding signal (z-score),[30],-0.251
same,glycan array binding signal (z-score),[31],-0.247
same,glycan array binding signal (z-score),[32],5.21
same,glycan array binding signal (z-score),[33],-0.309
same,glycan array binding signal (z-score),[34],-0.25
same,glycan array binding signal (z-score),[35],-0.298
same,glycan array binding signal (z-score),Neu5Ac(a2-6)GalNAc,-0.302
same,glycan array binding signal (z-score),[36],-0.301
same,glycan array binding signal (z-score),Neu5Ac(a2-8)Neu5Ac,-0.296
same,glycan array binding signal (z-score),[37],-0.29
same,glycan array binding signal (z-score),[38],-0.251
same,glycan array binding signal (z-score),[39],-0.307
same,glycan array binding signal (z-score),[40],-0.308
same,glycan array binding signal (z-score),[41],-0.277
same,glycan array binding signal (z-score),[42],-0.284
same,glycan array binding signal (z-score),[43],-0.307
same,glycan array binding signal (z-score),Neu5Ac(b2-6)GalNAc,-0.311
same,glycan array binding signal (z-score),[44],-0.299
same,glycan array binding signal (z-score),[45],-0.301
same,glycan array binding signal (z-score),[46],-0.253
same,glycan array binding signal (z-score),Neu5Gc(a2-3)Gal(b1-4)Glc,-0.3
same,glycan array binding signal (z-score),[47],-0.299
same,glycan array binding signal (z-score),[48],-0.303
same,glycan array binding signal (z-score),[49],-0.3
same,glycan array binding signal (z-score),Neu5Gc(a2-6)GalNAc,-0.283
same,glycan array binding signal (z-score),[50],-0.28
